Sequences with one replicate were seen in a single cluster, so their values are uncertain.
Tested on: ATP
Test: switch fluorescence ratio, 500 uM ATP over buffer (Cy3 cluster intensity, sum of 5 cycles each) (fold (ratio)); higher = stronger signal-on switching upon ATP binding; sequences stand for … in TCGTCGGCAGCGTCAGATGTGTATAAGAGACAGTTTTTTTTTTTTTTTTTTTTTTTTT…TC
Settings: aptamer strand: ATP DNA aptamer (quencher-CACCTGGGGGAGTATTGCGGAGGAAGG + anchor), 100 nM annealed; ATP concentration: 500 uM; one replicate
Summary of the method: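 Switching-strand clusters labelled with Cy3 on a modified Illumina MiSeq flow-cell were annealed to 100 nM quencher-labelled ATP aptamer, imaged in selection buffer, and re-imaged after 15 min with 500 uM ATP at 22 °C. This was done over five cycles with NaOH stripping and re-annealing in between. The fluorescence ratio is summed target-cycle over summed buffer-cycle Cy3 intensity per cluster, averaged per switch-domain sequence, excluding clusters outside 100-1000 RFU.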
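Further: ATP exposure 15 min at 22 °C before imaging.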

Sequence	switch fluorescence ratio
TTATCTAAAG	1.02
TTATGAGGAG	0.989
TTATGATCTA	1.02
TTATGCCAGG	1.07
TTATGCTAGG	0.956
TTATGCTTGC	0.966
TTATGGACAA	1.02
TTATGGATG	1
TTATGGCCCT	0.976
TTATGGGTCC	1
TTATGGGTTA	1.02
TTATGGTCGT	1.03
TTATTAATA	0.992
TTATTACCTG	1.02
TTATTATTA	1.02
TTATTATTCT	0.995
TTATTCAATT	1.06
TTATTCAGGG	0.994
TTATTCTGCA	1.02
TTATTGAGAG	1.01
TTATTGGAGT	1.2
TTATTGTAG	1.01
TTATTTCGCA	1.02
TTCAAACGGC	0.977
TTCAAACTCG	1.05
TTCAAAGAGG	0.975

Sequence	switch fluorescence ratio
TTCAAAGCGA	1.18
TTCAACAGGT	1.1
TTCAAGGACC	0.982
TTCAATGCTA	1.11
TTCAATTGAT	0.999
TTCACATCTC	0.947
TTCACCAGAA	1
TTCACCTGAA	1.06
TTCACGAGAC	2.47
TTCACGATAT	1.13
TTCACGTGGG	0.996
TTCACTGAGG	1.04
TTCACTGCGG	1.01
TTCAGATCAC	1
TTCAGCAGGC	1.17
TTCAGGAGAT	1.3
TTCAGGGGAC	0.986
TTCAGGGGC	1.06
TTCAGGTCGA	1.05
TTCAGTACGA	1
TTCAGTAGTG	0.993
TTCAGTCACC	1.02
TTCAGTGTCA	0.936
TTCAGTGTGA	1.02
TTCAGTTATT	1.04
TTCATAAAAG	1

Sequence	switch fluorescence ratio
TTCATAAGGG	0.943
TTCATCCTGA	1.07
TTCATGAGAA	1
TTCATGCTAG	1.01
TTCATTAACG	1.05
TTCATTCC	1.26
TTCATTCTGC	1.05
TTCATTTGAA	0.98
TTCCAACTTT	0.95
TTCCACGAAA	0.997
TTCCACTATT	1.07
TTCCAGCCGG	1
TTCCATAAAA	0.983
TTCCATGTTA	1.09
TTCCATTGGC	0.944
TTCCATTGTT	1.01
TTCCCAGCAT	1.23
TTCCCGGATG	1.04
TTCCCGGCAA	1.05
TTCCGAATTT	1.07
TTCCGAGAGG	1.06
TTCCGAGGAT	0.949
TTCCGCGGGA	1.1
TTCCGGGATT	1.07
TTCCTGAGA	1.09
TTCCTGCGGA	1.04

Sequence	switch fluorescence ratio
TTCCTTAGG	1.04
TTCGAAATGG	1.11
TTCGAACTGG	1.01
TTCGAAGAGG	0.992
TTCGACCCGG	0.997
TTCGACGTGA	1.57
TTCGAGACCA	1.02
TTCGAGCTTA	1.06
TTCGATTCAG	1.01
TTCGCATGAT	1.18
TTCGCCCTGT	1.04
TTCGCTCATT	0.947
TTCGCTCTCT	1.01
TTCGCTGTAA	1.26
TTCGCTTACT	1.27
TTCGGACTAA	1.01
TTCGGAGTGG	1.02
TTCGGGATCA	0.956
TTCGGGGTAA	0.987
TTCGGGTAGA	0.948
TTCGGGTTC	0.995
TTCGGTAATA	1.06
TTCGGTTGCG	0.971
TTCGTATGAC	1.02
TTCGTCCGAA	1.19
TTCGTCCGTT	1.1

Sequence	switch fluorescence ratio
TTCGTCTGG	1.02
TTCGTCTTA	0.938
TTCGTGGCGA	0.963
TTCGTGTATA	0.986
TTCGTGTGGA	1.03
TTCGTTAACG	0.97
TTCTAAGTTT	1.1
TTCTACGAAA	1.27
TTCTAGTCTG	1.01
TTCTATACT	1.02
TTCTATAGAA	0.971
TTCTATGACT	1.02
TTCTCAGGGA	1.03
TTCTCATAAA	1.01
TTCTCATGAC	1.06
TTCTCATGCT	0.996
TTCTCCCTAA	1.18
TTCTCCTGCG	0.963
TTCTCGTGAT	2.25
TTCTCTATAA	0.998
TTCTGCTTGA	0.948
TTCTGGGTG	1.08
TTCTGTAAGT	1.02
TTCTGTACA	0.977
TTCTGTAGAG	0.966
TTCTTCAAGG	0.978

Sequence	switch fluorescence ratio
TTCTTCAAGT	1.01
TTCTTCTCCT	0.972
TTCTTCTTGT	0.988
TTCTTGCAGT	0.998
TTCTTGGCCC	1.01
TTCTTTGAG	1.01
TTCTTTTAAG	1.02
TTGAAAAGTC	1.05
TTGAAACCGT	1.2
TTGAAATAAG	1.01
TTGAAATACC	1.04
TTGAAATAT	3.27
TTGAAATATG	1.05
TTGAAATGCG	0.993
TTGAACAATG	1.07
TTGAACGGCA	1.06
TTGAAGAGC	1.1
TTGAAGCTCA	1.03
TTGAAGGTAA	4.92
TTGAAGTGCA	0.996
TTGAATCTTG	1.01
TTGAATTATC	1.02
TTGACAAGC	0.982
TTGACAGTAG	1.01
TTGACATTAC	1.34
TTGACATTT	1.02

Sequence	switch fluorescence ratio
TTGACCGTCG	1.02
TTGACGGACC	1.27
TTGACTTTGT	1.07
TTGAGAATAG	1.01
TTGAGAGGGC	0.965
TTGAGATGCG	0.976
TTGAGATTCT	1.04
TTGAGGAACT	0.986
TTGAGGGCGA	1.02
TTGAGGTTTT	1.01
TTGAGTACGA	0.979
TTGAGTGATT	1.01
TTGAGTGTAA	1.04
TTGATCCAAT	0.994
TTGATCCCCA	0.967
TTGATGCTTA	1.05
TTGATGTTAT	0.979
TTGATTACG	1.06
TTGATTTAGA	0.998
TTGATTTAT	0.985
TTGATTTATC	0.964
TTGCAAAAAG	0.941
TTGCACAGGC	1.02
TTGCACCGTG	1
TTGCAGCAAG	1.52
TTGCAGCG	1.04

Sequence	switch fluorescence ratio
TTGCATGGCG	1.05
TTGCATT	0.999
TTGCATTATT	1.02
TTGCATTCGC	1
TTGCATTCTG	1.02
TTGCATTGAT	1
TTGCATTGCA	0.977
TTGCCCCGCC	1.19
TTGCCCTGAG	1.03
TTGCCGATCA	1.06
TTGCCGATGG	0.997
TTGCCTAGGC	1.06
TTGCCTTT	0.965
TTGCGAAA	1.01
TTGCGAATTA	1.02
TTGCGACCGT	0.948
TTGCGACGAA	1.08
TTGCGACTA	0.992
TTGCGACTAA	0.967

Source: the supplement of paper PMC10126150
